Measurements reported in the antibiotic and cytotoxicity screens of Wong et al. (2023).
This is one part of the list.

Tested on: HSkMC (human skeletal muscle cells)
Experiment: cytotoxicity call (relative viability < 0.9)
Conditions: 10 µM

SMILES	cytotoxicity call
C[C@H](CO)N1C[C@H](C)[C@H](CN(C)C(=O)CCC(F)(F)F)OCCCC[C@H](C)Oc2ccc(NC(=O)CCC(F)(F)F)cc2C1=O	inactive
C[C@@H]1CN([C@H](C)CO)C(=O)c2cccc(NC(=O)c3ccncc3)c2O[C@H]1CN(C)Cc1ccc(C(=O)O)cc1	inactive
O=C/C=C/c1ccccc1Cl	inactive
C#Cc1ccc([C@@H]2C=C(C(=O)N3CCN(Cc4ccc5c(c4)OCO5)CC3)O[C@H](OCC)[C@H]2CCCO)cc1	inactive
C[C@H](NC(=O)[C@@H](Cc1ccc2ccccc2c1)NC(=O)[C@@H](C)N)C(=O)N[C@@H](Cc1c[nH]c2ccccc12)C(=O)N[C@H](Cc1ccccc1)C(=O)N[C@@H](CCCCN)C(N)=O	inactive
C[C@H]1CN([C@@H](C)CO)S(=O)(=O)c2ccc(C#Cc3ccncc3)cc2O[C@H]1CN(C)C(=O)C1CCC1	inactive
O=C1O[C@H](c2ccccc2)[C@H](c2ccccc2)N2[C@H]1[C@@H](C(=O)NC[C@@H](O)c1ccccc1)[C@]1(C(=O)Nc3ccc(C#CC4(O)CCCCCC4)cc31)[C@H]2c1ccccc1OCCO	inactive
C[C@H](CO)N1C[C@H](C)[C@H](CN(C)C(=O)CCC(F)(F)F)OCc2ccccc2-c2c(n(C)c3ccccc23)C1=O	inactive
COCc1cn(CC[C@H]2CC[C@@H](NC(=O)CCN3CCCCC3)[C@H](CO)O2)nn1	inactive
C[C@H](CO)N1C[C@H](C)[C@H](CN(C)Cc2cccc3c2OCCCO3)OCc2cn(nn2)CCCC1=O	inactive
CN(C)CCNC(=O)[C@H]1CN(Cc2cnn(C)c2)Cc2ccnn2C1	inactive
C[C@H](CO)N1C[C@H](C)[C@H](CN(C)C(=O)Nc2ccc(F)cc2)OCCCC[C@H](C)Oc2ccc(NC(=O)C3CCC3)cc2C1=O	inactive
C[C@@H]1CCCCO[C@H](CN(C)C(=O)Nc2ccc(F)cc2)[C@@H](C)CN([C@H](C)CO)C(=O)c2cc(NC(=O)Nc3ccc(F)cc3)ccc2O1	inactive
Cc1ccc(S(=O)(=O)N2C[C@@H](O)COC[C@H]3O[C@H](CC(=O)NCc4ccc(Cl)c(Cl)c4)CC[C@@H]32)cc1	inactive
C[C@@H]1CN([C@H](C)CO)C(=O)Cc2cc(NC(=O)CCC(F)(F)F)ccc2O[C@@H]1CN(C)S(=O)(=O)c1ccccc1	inactive
C=C(C)C1=NC(C)(C)C[C@H](C)O1	inactive
Cc1ccc(S(=O)(=O)N(C)C[C@@H]2Oc3ccc(NC(=O)Cn4cnnn4)cc3CC(=O)N([C@@H](C)CO)C[C@@H]2C)cc1	inactive
C[C@H]1CN([C@@H](C)CO)C(=O)CCCn2nncc2CO[C@@H]1CN(C)C(=O)Nc1cccc2ccccc12	inactive
C[C@@H]1CN([C@@H](C)CO)C(=O)Cc2cc(NC(=O)Nc3ccc4c(c3)OCO4)ccc2O[C@@H]1CN(C)Cc1ccc(C(F)(F)F)cc1	inactive
COc1ccc(CN(C)C[C@H]2OCCCC[C@@H](C)Oc3ccc(NC(=O)Nc4ccc(F)cc4)cc3C(=O)N([C@@H](C)CO)C[C@H]2C)cc1	inactive
C[C@@H]1CN([C@@H](C)CO)C(=O)c2cccc(NC(=O)c3cnccn3)c2O[C@H]1CN(C)CC1CCCCC1	inactive
COc1cc2c(cc1O)[C@H](c1ccc(CN3CCCC3)cc1)N(Cc1cc3c(cc1Br)OCO3)CC2	inactive
Cc1ccc(S(=O)(=O)Nc2ccc3c(c2)C(=O)N([C@@H](C)CO)C[C@H](C)[C@@H](CN(C)S(C)(=O)=O)O3)cc1	inactive
COc1ccc(CN(C)C[C@H]2OCCCC[C@H](C)Oc3ccc(NC(=O)Nc4ccc5c(c4)OCO5)cc3C(=O)N([C@H](C)CO)C[C@H]2C)cc1	inactive
C[C@@H]1CN([C@@H](C)CO)C(=O)c2cccc(NC(=O)Nc3cccc4ccccc34)c2O[C@@H]1CN(C)S(=O)(=O)c1ccc(Cl)cc1	inactive
C[C@H](CO)N1C[C@H](C)[C@@H](CN(C)C(=O)c2ccccc2)OCCCC[C@H](C)Oc2ccc(NS(=O)(=O)c3ccccc3)cc2C1=O	inactive
C[C@@H]1CCCCO[C@H](CN(C)S(=O)(=O)c2cccs2)[C@H](C)CN([C@H](C)CO)C(=O)c2cc(NC(=O)NC3CCCCC3)ccc2O1	inactive
COc1ccc(S(=O)(=O)Nc2ccc3c(c2)C(=O)N([C@H](C)CO)C[C@@H](C)[C@@H](CN(C)C(=O)CCC(F)(F)F)OCCCC[C@@H](C)O3)cc1	inactive
